In the antibiotic and cytotoxicity screens of Wong et al. (2023):
This is one part of the list.

Columns and labels:
HSkMC = human skeletal muscle cells; assay: cytotoxicity call (relative viability < 0.9); details: 10 µM
HepG2 = assay: cytotoxicity call (relative viability < 0.9); details: 10 µM
S. aureus RN4220 = assay: growth inhibition call (relative growth <= 0.2); details: 50 µM

Structure (SMILES) | cytotoxicity call (HSkMC) | cytotoxicity call (HepG2) | growth inhibition call (S. aureus RN4220)
C=CCOC(=O)[C@H]1[C@@H]2C(=O)O[C@@H](c3ccccc3)[C@@H](c3ccccc3)N2[C@@H](c2cccc(OCCOC(=O)NCCCCCC(=O)NO)c2)[C@@]12C(=O)Nc1ccc(I)cc12 | inactive | inactive | inactive
C[C@H]1CN([C@H]2C[C@@H](O)[C@@H](CO)O2)C(=O)NC1=O | inactive | inactive | inactive
Cc1ccc(S[C@]2(C(=O)NCCCN(C)C)CC(=O)N(C3CCCCC3)[C@@H]2c2ccc(CO)cc2I)cc1 | inactive | inactive | inactive
CC(C)(C)[S@](=O)N1Cc2cc(C(=O)N3CCc4ccccc4C3)nc(-c3cccc(-c4cccnc4)c3)c2[C@@H]1CCO | inactive | inactive | inactive
COc1ccc([C@@H]([C@H](Cc2ccccc2)OC(C)=O)N2C[C@@H](CC(=O)N(C)C)[C@H]3[C@@H]([C@@H]2Cc2ccccc2)N(C)O[C@@H]3c2ccccc2)cc1 | inactive | active | inactive
COc1ccc2c3c([nH]c2c1)[C@@H](CO)N(C[C@]13CCN(CC1)C(=O)c1cnccn1)C(=O)c1cnccn1 | inactive | inactive | inactive
NCc1cnn(-c2ccc(F)cc2)c1 | inactive | inactive | inactive
C#CCN1CCS(=O)(=O)CC1 | inactive | inactive | inactive
COCC(=O)Nc1ccc2c(c1)C(=O)N(C)[C@H]1CC[C@@H](CC(=O)NCc3ccc(OC)cc3)O[C@H]1CO2 | inactive | inactive | inactive
C[C@H](CO)N1C[C@H](C)[C@@H](CN(C)Cc2ccccc2F)Oc2cc(C#CCN(C)C)ccc2S1(=O)=O | inactive | inactive | inactive
C[C@@H]1CN([C@@H](C)CO)C(=O)CCCn2cc(nn2)CO[C@H]1CN(C)S(=O)(=O)c1cn(C)cn1 | inactive | inactive | inactive
C[C@H]1CN([C@@H](C)CO)C(=O)Cc2cc(NS(=O)(=O)c3ccccc3)ccc2O[C@@H]1CN(C)S(=O)(=O)c1ccccc1 | inactive | inactive | inactive
NCCCNCCCCNCCCN | inactive | inactive | inactive
C[C@H](CO)N1C[C@H](C)[C@@H](CN(C)S(=O)(=O)c2cccs2)OCCCC[C@H](C)Oc2ccc(NC(=O)Nc3ccc(F)cc3)cc2C1=O | inactive | inactive | inactive
O=S1(=O)CCOCC1 | inactive | inactive | inactive
C[C@@H]1CCCCO[C@@H](CN(C)C(=O)NC2CCCCC2)[C@@H](C)CN([C@H](C)CO)C(=O)c2cc(NS(=O)(=O)c3ccc(Cl)cc3)ccc2O1 | inactive | inactive | inactive
NCC1OC(OC2C(N)CC(N)C(OC3OC(CO)C(O)C(N)C3O)C2O)C(N)C(O)C1O.O=S(=O)(O)O (stereo unspecified) | inactive | inactive | active
O=C(C[C@@H]1C[C@@H]2c3cc(NC(=O)c4ccc5c(c4)OCO5)ccc3O[C@@H]2[C@H](CO)O1)NCc1cccnc1 | inactive | inactive | inactive
C[C@@H]1CN([C@H](C)CO)C(=O)c2cc(NC(=O)Cn3cnnn3)ccc2O[C@H]1CN(C)Cc1ccncc1 | inactive | inactive | inactive
C[C@@H]1CN([C@H](C)CO)C(=O)c2cccc(NC(=O)Nc3ccc(C(F)(F)F)cc3)c2O[C@@H]1CN(C)S(=O)(=O)c1ccc(F)cc1 | inactive | inactive | inactive
Cc1ccc(S(=O)(=O)N(C)C[C@H]2Oc3c(NS(=O)(=O)c4ccccc4)cccc3C(=O)N([C@H](C)CO)C[C@@H]2C)cc1 | inactive | inactive | inactive
O=c1[nH]c(=O)n(C2CC(O)C(CO)O2)cc1I (stereo unspecified) | inactive | inactive | inactive
C[C@H](CO)N1C[C@H](C)[C@@H](CN(C)S(=O)(=O)c2cccs2)Oc2ccc(NS(=O)(=O)c3ccccc3)cc2CC1=O | inactive | inactive | inactive
O=C(C[C@@H]1CC[C@@H]2[C@H](COC[C@H](O)CN2S(=O)(=O)c2ccc(F)cc2)O1)NCc1ccc(Cl)c(Cl)c1 | inactive | inactive | inactive
C[C@@H]1CN([C@H](C)CO)C(=O)c2cc(NC(=O)C3CCCCC3)ccc2O[C@@H](C)CCCCO[C@@H]1CN(C)CC1CCCCC1 | inactive | active | inactive
O=C(C[C@@H]1CC[C@@H]2[C@H](COC[C@H](O)CN2S(=O)(=O)c2ccccc2F)O1)NCc1ccccc1F | inactive | inactive | inactive
CCOC(=O)N1CCN(C(=O)CN(C)S(=O)(=O)c2ccc3c(c2)c(=O)n(C)c(=O)n3C)CC1 | inactive | inactive | inactive
